Hit rate of the full screen: of about 150,000 compounds, about 540 (0.36%) showed an effect of 50% or more. The list shows a part of the results.

The test system of the experiment is Plasmodium falciparum. Put plainly: Primary screen in NF54 nanoGlo assay, in single point, at 2uM, 72h; a lower Z score goes with more inhibition. Conditions: timepoint 72 hour. Format: functional, Erythrocyte.
One may read the % Inhibition as the change of the read-out against control, counted positive when it falls. In the case of `CC(=O)Nc1ccc(S(=O)(=O)NCCn2c(-c3ccc(C)cc3)nc3ccccc32)cc1`, the “% Inhibition” value is -1% and the Z score is listed as 0.11.

As to `CN(C)c1cc2c(cc1NC(=O)NCC1=CCCCC1)n(C)c(=O)n2C`, the “% Inhibition” value is -7% and the Z score was 0.93.

Consider `CCc1nc(C)c(CNC(=O)CCCn2cccn2)s1`, for which the “% Inhibition” value is recorded as -4% and the Z score was determined as 0.9.

For `CCOCc1ccccc1CNC(=O)Nc1ccc2nc(C)nn2c1`, the “% Inhibition” value is given as -5% and the Z score turned out to be 0.77.

As to `CC(C)(O)CN[C@@H](CCCNC(=O)OC(C)(C)C)c1ccccc1`, the “% Inhibition” value is reported as -7% and the Z score is on record as 0.95.

On to `Cc1noc(C)c1S(=O)(=O)NC[C@H](O)c1csc2ccccc12`, for which the “% Inhibition” value is -21% and the Z score was 2.64.

Consider `CCc1cnc(CN(C)Cc2nnc(C)o2)s1`, for which the “% Inhibition” value is listed as 4% and the Z score was -0.69.

Regarding `CN(CC(=O)Nc1cccc(F)c1)C(=O)C[C@@H]1C=CCC1`, the “% Inhibition” value came to 12% and the Z score was -1.67.

`Cc1ccc(C)c(-n2nc(CC(C)C)nc2CN2C(=O)CNC2=O)c1`: the “% Inhibition” value came to 1% and the Z score was -0.25.

In the case of `Cc1cc(NC(=O)c2csc(-c3cccs3)n2)no1`, the “% Inhibition” value was -3% and the Z score is listed as 0.37.

For the compound `Cc1ccc(CN(Cc2ccc(C(O)(c3cccc(F)c3)c3cccc(F)c3)o2)C[C@H]2CCCO2)o1`, the “% Inhibition” value is -7% and the Z score stood at 1.01.

`COc1ccc(C(=O)N(C)C2CCN(Cc3ncc(C)c(OC)c3C)CC2)nc1`: the “% Inhibition” value was -1% and the Z score was 0.06.

With `CCOC1CCN(Cc2cnc3c(S(C)(=O)=O)cnn3c2)CC1`, the “% Inhibition” value was -14% and the Z score worked out at 2.04.

On to `O=C(OC1CCCC1)c1ccc(NC(=O)[C@@H]2COCCO2)cc1`, for which the “% Inhibition” value is on record as -8% and the Z score is on record as 1.52.

Turning to `Cc1cc(-c2nnn(CC3(CS(C)(=O)=O)CCC3)n2)ccc1F`, the “% Inhibition” value is reported as -1% and the Z score came to 0.22.

As for `CC[C@H](NC(=O)N1CCNC(=O)CC1)c1ccccc1OC(F)F`, the “% Inhibition” value is reported as -14% and the Z score worked out at 1.69.

As for `CCN(c1ccc(C(F)(F)F)c(C#N)n1)[C@H]1CCOC1`, the “% Inhibition” value was -8% and the Z score is 0.86.

In the case of `COCCN(c1nc2ccccc2s1)S(=O)(=O)c1cc(C(C)=O)ccc1Cl`, the “% Inhibition” value is -8% and the Z score amounted to 1.

In the case of `O=C(c1ccc(CS(=O)(=O)c2ccccc2)o1)N1CCN(c2ccccc2Cl)CC1`, the “% Inhibition” value is -6% and the Z score was 0.55.

With `C[C@H](Oc1cccc(Cl)c1Cl)C(=O)Nc1cnc(-c2cccc(O)c2)nc1`, the “% Inhibition” value amounted to 11% and the Z score is recorded as -1.38.

`COc1nc(-c2ccccc2Cl)nc2c1sc(=S)n2-c1ccccc1`: the “% Inhibition” value is listed as -6% and the Z score was 0.84.

Regarding `COc1cccc(NC(=O)Nc2cccc(CCc3nc4ccccc4n3C)c2)c1`, the “% Inhibition” value was -11% and the Z score is 1.73.

For the compound `COC(=O)[C@H]1CCc2nnc(Cc3ccccc3C)n2CC1`, the “% Inhibition” value worked out at 10% and the Z score was -1.73.

For the compound `CC(=O)c1ccc(S(=O)(=O)N2CCN(Cc3noc4ccccc34)CC2)cc1`, the “% Inhibition” value was -5% and the Z score is 0.6.

Consider `Cc1ccccc1NC(=O)CN1CCN(Cc2ccccc2)S1(=O)=O`, for which the “% Inhibition” value is recorded as -18% and the Z score turned out to be 1.6.

`c1ccc(CCc2noc(-c3ccnc4ccncc34)n2)cc1`: the “% Inhibition” value amounted to 10% and the Z score was -0.89.

Take `COc1csc(C(=O)NCc2noc(-c3ccsc3)n2)c1`: the “% Inhibition” value was -13% and the Z score came out at 1.33.

As to `Cc1cc(-c2ccncc2)cnc1-n1cnnc1`, the “% Inhibition” value was -14% and the Z score is given as 1.82.

`Cc1cc(CN2C[C@@H]3CC[C@H]2CN(Cc2c(C)noc2C)C3)ccc1F`: the “% Inhibition” value was -17% and the Z score stood at 3.36.

Turning to `CCOC(=O)N1CCC(Nc2nc(-c3ccc4c(c3)OCCO4)cs2)CC1`, the “% Inhibition” value was 1% and the Z score is listed as -0.13.

As for `CC1(C)[C@@H]2CCC13CS(=O)(=O)N(Cc1cnc4ccccc4c1)[C@H]3C2`, the “% Inhibition” value is recorded as -5% and the Z score is on record as 0.89.

As for `O=C(CC1CCC(F)(F)CC1)NCc1cccc2occc12`, the “% Inhibition” value is -4% and the Z score was 0.65.

For `CN(C(=O)NC1CCCCCC1)C1CCC1`, the “% Inhibition” value was -4% and the Z score is reported as 0.51.

In the case of `Cc1csc(N(C)C(=O)c2cc(N3CC(C)OC(C)C3)ccn2)n1` (centres undefined), the “% Inhibition” value is recorded as -5% and the Z score was 0.89.

On to `Cc1ccc(OCCN)c(C(=O)NCc2cc3ccccc3s2)c1`, for which the “% Inhibition” value was 2% and the Z score was -0.31.

In the case of `CCOc1cc(C(=O)N2CC(S(=O)(=O)CC(C)C)C2)cc(OCC)c1OCC`, the “% Inhibition” value is -8% and the Z score is listed as 1.04.

Regarding `c1ccc(CCCN2CCCN(Cc3cnn4cccnc34)CC2)cc1`, the “% Inhibition” value worked out at 5% and the Z score was -0.75.

For the compound `CCC1CN(C(=O)NCc2cc(OC)no2)CC(C)O1` (centres undefined), the “% Inhibition” value is given as -11% and the Z score is given as 2.2.

In the case of `Cc1cc(N(C)C)ccc1CN[C@@H](C)CCn1cccn1`, the “% Inhibition” value is 1% and the Z score was -0.15.

With `O=C(COc1ccccc1Cl)NC(=O)Nc1cccc(C(F)(F)F)c1`, the “% Inhibition” value is reported as 1% and the Z score is listed as -0.14.

Consider `O=C(Nc1cnccc1O)c1ccccc1C(=O)c1ccc(Br)cc1`, for which the “% Inhibition” value was -8% and the Z score worked out at 1.14.

Consider `CCc1cc(C(=O)NCc2ccc(C)cc2)nc2ccnn12`, for which the “% Inhibition” value was 5% and the Z score was -0.81.

These data come from ChEMBL document CHEMBL4888484, “Replenishing the malaria drug discovery pipeline: Screening and hit evaluation of the MMV Hit Generation Library 1 (HGL1) against asexual blood stage Plasmodium falciparum ,using a nano luciferase reporter read-out” (2022).
